Results as given in patent US4540700A, “Treatment of diabetic complications with certain spiro-imidazolidine-diones” (Alcon Laboratories, Inc., priority 1984, dated 1985).
The source gives many values for each of these; only a part stands here.

Tested on: cataract formation in galactocemic rats
Experiment: in vivo dose response by intubation (per oral) in galactocemic rats, cataract (vacuole) formation
Parameters: species or system Charles River CD (Sprague-Dawley derived) male rats
Procedure: B. In vivo dose response studies were conducted to test the in vivo activity of the following compounds by intubation (per oral) in galactocemic rats on a 30% galactose diet previously described:
Stock suspensions of the test compounds and all dilutions of the compound were formulated with 0.03% by weight Tween 80.
Healthy, Charles River CD (outbred albino, Sprague-Dawley derived) male rats, aged 20-30 days, without observable ocular defects and ranging in weight from 35-45 grams, were acclimated to experimental conditions (in quarantine) for two days prior to beginning the study.
Rats were individually assigned to one of twenty-three groups according to a random number schedule. Two rats, belonging to the same drug-diet treatment group, were housed per cage. Treatment and control groups consisted of six (6) rats each with no replacement in the event of death, and were designated as follows:
Lenses of all eyes were examined with a hand-held ophthalmoscope in the early stages of cataract development and a penlight for the stages, snowflake-like, snowflake, and nuclear cataract. Lens grading occurred every day for the first ten study days, and then every other day until study Day 14.
The relative potency determination was made at 7 drug levels over half log dose intervals. The response (percent cataracts formed and/or the time to cataract formation) was plotted against mg/kg and/or moles/kg.
The study was directed to the suppression and/or elimination of the initial stages of cataract development characterized by vacuoles or snowflake-likeopacities only. It was assumed therefore that suppression and/or elimination of vacuoles or lens opacification by the test drugs affects the transport, absorption and/or metabolism of galactose in such a manner as to prevent subsequent osmotic disturbances normally leading to tissue degeneration and advanced cataract. Advanced cataract defined as stages 2-4 of the Sipple classification was assumed to be of secondary importance to the etiology of cataract inhibition.
In the event where cataract stage other than vacuole formed, such as snowflake-like opacities, this cataract was counted similarly as vacuole in percent cataract formation.
This study yielded this expected effect in the control groups.
All animals were fed Purina Laboratory Chow and water, ad libitum, for the two day acclimation period. All drugs were dosed orally by intubation using an animal feeding needle (Popper and Sons), 18 or 20 gauge, attached to a 1 or 3 ml syringe. Once the dosing time schedule was established, the schedule was followed throughout the study to compensate for any diurnal variation.
The animals were kept on a twelve hour day/night cycle. The temperature and humidity were determined each day at the scheduled dosing time of 1:00 p.m.
The animals were weighed every other day and adjustments to dosage amounts to compensate for weight gain were made each day prior to the dose time. All food was routinely withheld from all animal groups for four hours (9:00 a.m.) prior to the drug dose and restored two hours (3:00 p.m.) post-dose. Otherwise sufficient amounts of chow or diet mixture were maintained in the food hopper to allow the animals to eat ad libitum. There were two days of drug dosage with the animals remaining on Purina Laboratory Chow (Days 1 and 2). The 30% galactose diet mixture was introduced to the animals two hours post-dose on Day 3 which constituted Day 1 of the study.
All eyes were examined with a hand-held ophthalmoscope and/or penlight at the times designated in the Experimental Design section.
It has been found in previous studies that dilation of the eye with a mydriactic (i.e. Mydriacyl) is not necessary for accurate grading, due to the semi-transparent nature of the rat iris. In the early stages (i.e., grades -, ±, and +) the lens was observed by reflecting the ophthalmoscope beam off the retina back through the lens and iris. Using this technique, vacuoles appear as dark, almost opaque patches. […]

Row | SMILES | Percent of Rat Eyes With at Least Vacuoles Formed (0.040 mg/kg p.o., Day 6) | Percent of Rat Eyes With at Least Vacuoles Formed (0.040 mg/kg p.o., Day 7) | Percent of Rat Eyes With at Least Vacuoles Formed (0.040 mg/kg p.o., Day 8) | Percent of Rat Eyes With at Least Vacuoles Formed (0.040 mg/kg p.o., Day 9) | Percent of Rat Eyes With at Least Vacuoles Formed (0.040 mg/kg p.o., Day 10) | Percent of Rat Eyes With at Least Vacuoles Formed (0.040 mg/kg p.o., Day 12) | Percent of Rat Eyes With at Least Vacuoles Formed (0.040 mg/kg p.o., Day 14) | Percent of Rat Eyes With at Least Vacuoles Formed (0.126 mg/kg p.o., Day 6) | Percent of Rat Eyes With at Least Vacuoles Formed (0.126 mg/kg p.o., Day 7) | Percent of Rat Eyes With at Least Vacuoles Formed (0.126 mg/kg p.o., Day 8) | Percent of Rat Eyes With at Least Vacuoles Formed (0.126 mg/kg p.o., Day 9) | Percent of Rat Eyes With at Least Vacuoles Formed (0.126 mg/kg p.o., Day 10) | Percent of Rat Eyes With at Least Vacuoles Formed (0.126 mg/kg p.o., Day 12) | Percent of Rat Eyes With at Least Vacuoles Formed (0.126 mg/kg p.o., Day 14) | Percent of Rat Eyes With at Least Vacuoles Formed (0.4 mg/kg p.o., Day 6) | Percent of Rat Eyes With at Least Vacuoles Formed (0.4 mg/kg p.o., Day 7) | Percent of Rat Eyes With at Least Vacuoles Formed (0.4 mg/kg p.o., Day 8) | Percent of Rat Eyes With at Least Vacuoles Formed (0.4 mg/kg p.o., Day 9) | Percent of Rat Eyes With at Least Vacuoles Formed (0.4 mg/kg p.o., Day 10) | Percent of Rat Eyes With at Least Vacuoles Formed (0.4 mg/kg p.o., Day 12) | other results
1 | O=C1NC(=O)C2(CCOc3ccc(F)cc32)N1 (racemic) [Sarges Racemic, dl-spiro-(6-fluorochroman-4,4'-imidazolidine)-2',5'-dione, reference compound] | 0.0% | 8.3% | 50.0% | 66.7% | 100.0% | 100.0% | 100.0% | 33.3% | 33.3% | 41.7% | 75.0% | 100.0% | 100.0% | 100.0% | 33.3% | 33.3% | 50.0% | 58.3% | 83.3% | 83.3% | Percent of Rat Eyes With at Least Vacuoles Formed (0.4 mg/kg p.o., Day 14): 100.0%; Percent of Rat Eyes With at Least Vacuoles Formed (1.26 mg/kg p.o., Day 7): 0.0%; Percent of Rat Eyes With at Least Vacuoles Formed (1.26 mg/kg p.o., Day 8): 8.3%; Percent of Rat Eyes With at Least Vacuoles Formed (1.26 mg/kg p.o., Day 9): 16.7%; Percent of Rat Eyes With at Least Vacuoles Formed (1.26 mg/kg p.o., Day 10): 83.3%; Percent of Rat Eyes With at Least Vacuoles Formed (1.26 mg/kg p.o., Day 12): 100.0%; Percent of Rat Eyes With at Least Vacuoles Formed (1.26 mg/kg p.o., Day 14): 100.0%
2 | O=C1NC(=O)C2(N1)c1cc(F)ccc1-c1ccc(F)cc12 [M, Spiro-[2,7-difluorofluoren-9,4'-imidazolidine]-2',5'-dione] | 50.0% | 66.7% | 83.3% | 83.3% | 91.7% | 100.0% | 100.0% | 8.3% | 25.0% | 66.7% | 66.7% | 66.7% | 66.7% | 75.0% | 0.0% | 0.0% | 0.0% | 0.0% | 0.0% | 0.0% | Percent of Rat Eyes With at Least Vacuoles Formed (0.4 mg/kg p.o., Day 14): 0.0%; Percent of Rat Eyes With at Least Vacuoles Formed (1.26 mg/kg p.o., Day 7): 0.0%; Percent of Rat Eyes With at Least Vacuoles Formed (1.26 mg/kg p.o., Day 8): 0.0%; Percent of Rat Eyes With at Least Vacuoles Formed (1.26 mg/kg p.o., Day 9): 0.0%; Percent of Rat Eyes With at Least Vacuoles Formed (1.26 mg/kg p.o., Day 10): 0.0%; Percent of Rat Eyes With at Least Vacuoles Formed (1.26 mg/kg p.o., Day 12): 0.0%; Percent of Rat Eyes With at Least Vacuoles Formed (1.26 mg/kg p.o., Day 14): 0.0%
3 | O=C1NC(=O)C2(N1)c1ccccc1-c1ccc(F)cc12 (racemic) [Compound L, dl-Spiro(2-fluorofluoren-9,4'-imidazolidine)-2',5'-dione] | 33.3% | 50.0% | 83.3% | 83.3% | 100.0% | 100.0% | 100.0% | 33.3% | 33.3% | 50.0% | 50.0% | 50.0% | 83.3% | 83.3% | 0.0% | 8.3% | 41.7% | 41.7% | 66.7% | 83.3% | Percent of Rat Eyes With at Least Vacuoles Formed (0.4 mg/kg p.o., Day 14): 100.0%; Percent of Rat Eyes With at Least Vacuoles Formed (1.26 mg/kg p.o., Day 7): 0.0%; Percent of Rat Eyes With at Least Vacuoles Formed (1.26 mg/kg p.o., Day 8): 0.0%; Percent of Rat Eyes With at Least Vacuoles Formed (1.26 mg/kg p.o., Day 9): 0.0%; Percent of Rat Eyes With at Least Vacuoles Formed (1.26 mg/kg p.o., Day 10): 0.0%; Percent of Rat Eyes With at Least Vacuoles Formed (1.26 mg/kg p.o., Day 12): 0.0%; Percent of Rat Eyes With at Least Vacuoles Formed (1.26 mg/kg p.o., Day 14): 0.0%
